Measured values as given in the supplement of paper PMC3334620.
The full ranking holds about 33,000 sequences; the median of “E-score (-0.5 to 0.5)” is about -0.035, and the highest 2% start at about 0.35. The list shows a part of the results.

target: T1, Pdr3 (UniProt P33200); assay: PBM E-score (8-mer binding enrichment) (E-score (-0.5 to 0.5)); higher = stronger / more preferred TF binding; most listed sequences are background and not binding sites; settings: protein concentration: 200 nM; construct: GST-full length
T1 sequence: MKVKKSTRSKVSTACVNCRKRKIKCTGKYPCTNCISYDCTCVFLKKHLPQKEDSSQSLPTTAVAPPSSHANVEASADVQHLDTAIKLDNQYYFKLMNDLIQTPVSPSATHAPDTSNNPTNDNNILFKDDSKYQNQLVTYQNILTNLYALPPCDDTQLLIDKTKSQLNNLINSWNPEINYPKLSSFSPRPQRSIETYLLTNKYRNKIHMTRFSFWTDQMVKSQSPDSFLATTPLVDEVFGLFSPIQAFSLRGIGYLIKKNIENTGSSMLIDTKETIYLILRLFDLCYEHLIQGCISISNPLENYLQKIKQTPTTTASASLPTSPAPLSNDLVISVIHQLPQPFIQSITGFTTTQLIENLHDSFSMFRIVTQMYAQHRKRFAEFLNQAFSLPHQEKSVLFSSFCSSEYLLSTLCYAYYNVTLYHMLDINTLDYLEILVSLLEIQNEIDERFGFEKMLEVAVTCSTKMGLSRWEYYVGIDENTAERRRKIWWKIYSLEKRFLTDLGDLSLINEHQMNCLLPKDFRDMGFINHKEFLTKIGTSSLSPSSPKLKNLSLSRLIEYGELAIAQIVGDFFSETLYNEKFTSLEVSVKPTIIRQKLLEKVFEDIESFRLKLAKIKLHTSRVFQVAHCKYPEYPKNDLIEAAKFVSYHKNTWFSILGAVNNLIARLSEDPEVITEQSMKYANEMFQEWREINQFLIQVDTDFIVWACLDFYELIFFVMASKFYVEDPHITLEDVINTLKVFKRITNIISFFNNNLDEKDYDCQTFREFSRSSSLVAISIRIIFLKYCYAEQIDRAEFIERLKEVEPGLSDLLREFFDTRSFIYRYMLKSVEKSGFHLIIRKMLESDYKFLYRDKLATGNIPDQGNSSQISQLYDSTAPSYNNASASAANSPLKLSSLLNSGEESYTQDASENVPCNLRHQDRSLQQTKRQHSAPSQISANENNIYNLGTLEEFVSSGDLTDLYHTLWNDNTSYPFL
In short: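 PURExpress in vitro transcription/translation supplied GST-tagged yeast transcription factors, either full-length or DNA-binding domain. Applied at about 100-200 nM to universal all-10-mer Agilent arrays double-stranded by primer extension, the bound protein was detected with fluorescent anti-GST. E-scores, modified Wilcoxon-Mann-Whitney statistics, were given by the Universal PBM Analysis Suite to ungapped eight-base words pooled with their reverse complements after masliner normalisation.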

| Sequence | PBM E-score |
| --- | --- |
| GCGTCACA | -0.149 |
| ACGTCGGC | 0.0854 |
| CCTCCAAA | -0.151 |
| AGTAAGAG | -0.243 |
| CACACCGC | 0.166 |
| AACATAGG | -0.0569 |
| TAAACTGA | -0.0927 |
| GATTCTAA | -0.0897 |
| GTCATTGA | -0.152 |
| AAATCGGA | 0.326 |
| AAGTCCGG | 0.3 |
| ACCGCACA | -0.2 |
| ACCTATTC | -0.175 |
| AAAGGCTA | -0.215 |
| AGCTGACA | -0.0375 |
| AGCGGCCT | 0.0486 |
| CCGTATTC | 0.178 |
| GCTAAGTA | -0.0542 |
| CCTTTGCA | -0.164 |
| ACAAGGGA | -0.234 |
| ACGCTCGA | -0.116 |
| AGTTGTAG | -0.153 |
| GCTGCGCA | 0.101 |
| CGTCCACC | -0.0398 |
| AAAACAAT | 0.131 |

| Sequence | PBM E-score |
| --- | --- |
| CTCTCAAA | -0.163 |
| AAGCTGGT | 0.0448 |
| TGAAGCCA | -0.208 |
| ATAACAGC | -0.0612 |
| CCACGTTC | 0.00025 |
| ATTGCTTG | -0.156 |
| GGTAAGGA | -0.294 |
| GCGAGCGC | 0.147 |
| GCACTCAC | -0.0842 |
| GGCTTAAA | 0.0305 |
| CATTGGGC | -0.245 |
| ATCCTTCA | -0.0778 |
| GACTTCAC | 0.038 |
| GCGTTTTA | -0.0458 |
| CACGATAC | 0.00828 |
| AATTAAAT | 0.0294 |
| CAGCCGAG | 0.129 |
| CCATTTCC | 0.241 |
| AGACTCCA | -0.123 |
| AAGTACCA | -0.0226 |
| TATAGGCA | -0.171 |
| TAGTTGAA | 0.00489 |
| TCACGCCA | -0.033 |
| GTCCAAGA | -0.16 |
| AATAATAA | 0.0462 |

| Sequence | PBM E-score |
| --- | --- |
| AGGGTCCC | 0.0499 |
| ATCCCTGA | -0.138 |
| GCGAAGCC | -0.156 |
| CCGAAAAG | 0.12 |
| GTTCGACA | 0.0381 |
| AGCTTTGG | -0.231 |
| AAACAGAT | -0.147 |
| ACGTAATG | -0.044 |
| CTGTCTCA | -0.142 |
| CAATATCC | 0.226 |
| CCGGCTCC | 0.345 |
| AGGGCCAC | -0.179 |
| AGTGCGGA | 0.377 |
| CAGAGCGC | -0.233 |
| AGATCCAT | -0.0187 |
| AAAATCGT | -0.169 |
| TAAACTTA | -0.229 |
| ATGGGAGA | -0.29 |
| CTGTTTCA | -0.142 |
| GGAGAACC | 0.164 |
| AGGCGCGG | 0.0455 |
| GTGCCAAC | -0.0172 |
| AGGAGGAA | -0.2 |
| ACCCAAGT | -0.00356 |
| ATACTGGG | -0.00887 |

| Sequence | PBM E-score |
| --- | --- |
| AACTAGTC | -0.117 |
| AACGATCG | 0.0619 |
| AAGCTTGG | -0.167 |
| ACGCCATG | -0.139 |
| CGCTGGTA | -0.18 |
| AACCACCT | 0.171 |
| CACGTCAA | -0.236 |
| ATATCCAT | -0.00671 |
| AATTGGTC | 0.145 |
| AGATCTAT | -0.249 |
| AGCGTGAC | -0.022 |
| CAGGAACC | -0.124 |
| CTCTTCCC | 0.0704 |
| AGCTCTTG | -0.197 |
| ATTAAAGG | 0.00041 |
| AGTGCTGA | -0.177 |
| ACGGCGGC | 0.0734 |
| CCCTTACC | -0.206 |
| ACGAACCG | 0.00965 |
| GAAACTTC | 0.00211 |
| ATCCGTCC | 0.225 |
| CGGGTACC | 0.258 |
| ATTTCCAC | 0.131 |
| GCCAGGCA | 0.0885 |
| CACCCTTA | -0.138 |

| Sequence | PBM E-score |
| --- | --- |
| ACGTCAAA | -0.154 |
| GTATGATA | 0.0443 |
| AGCCTAAT | -0.208 |
| AATATTAA | 0.244 |
| ATATATGA | -0.129 |
| AACAACGC | 0.0678 |
| CGGTCCAG | -0.0751 |
| ACGCTAGG | -0.296 |
| CTTTCGTA | -0.0604 |
| GACGTACC | -0.145 |
| CATGATGA | -0.187 |
| TACGCGAA | -0.0666 |
| AAGGCGGT | -0.0371 |
| AGGCTAGG | -0.306 |
| TTGCACAA | -0.166 |
| CGATCATC | 0.012 |
| AGCATGTG | -0.0452 |
| GGAACGTA | 0.136 |
| CGCGGAAG | 0.454 |
| GCATTGCC | -0.0563 |
| ACCGGTGC | 0.142 |
| AATAGTTC | 0.105 |
| AATAACTC | 0.0165 |
| CCGCTAAA | 0.144 |
| CCCAGCCC | -0.179 |

| Sequence | PBM E-score |
| --- | --- |
| AAGTATCG | -0.0468 |
| GGATCCAA | 0.25 |
| AAAGTTGC | -0.0111 |
| TACCGTCA | 0.0536 |
| TAGCTCAA | -0.152 |
| AGGGCCCC | -0.0783 |
| TGAGCGCA | -0.0403 |
| CGCCCAGA | -0.149 |
| ACCGTTTG | -0.104 |
| AGGGGTCC | -0.0897 |
| CCTGGCGA | -0.0667 |
| AATCCAGT | 0.179 |
| CAACAGGC | -0.208 |
| CCTTAGGA | -0.126 |
| TATTTCAA | -0.154 |
| AGGTCTTG | 0.00578 |
| AAGGGGGA | -0.0907 |
| ATTGTATA | 0.203 |
| TGGCAACA | -0.217 |
| CGGAGGAA | 0.268 |
| TGATTCAA | 0.0405 |
| CACATGGA | -0.158 |
| TCGCCCAA | -0.0429 |
| ATGAATAC | -0.0134 |
| CAACCGGG | 0.129 |

| Sequence | PBM E-score |
| --- | --- |
| TGTGATAA | -0.121 |
| AAGTGCAA | -0.155 |
| ATGAGGAC | -0.126 |
| GCCATCGC | -0.239 |
| AGATAATG | -0.037 |
| CGTTTGCC | 0.0664 |
| ATTATTAA | 0.126 |
| CACGCCGG | 0.302 |
| TGAAAAAA | 0.0176 |
| ACAATCGA | -0.155 |
| ACGCGCGG | 0.308 |
| CTCATAGA | -0.16 |
| TATACTGA | 0.179 |
| ACAAAGTG | -0.0193 |
| ATATCGGG | 0.143 |
| AATGAAGT | -0.0777 |
| TCAAATGA | -0.0624 |
| GCATACAA | 0.00355 |
| AACGGGAA | 0.354 |
| ACGTGTAG | -0.0709 |
| ACCACGTG | -0.071 |
| GCATCCCC | 0.112 |
